Experiment [1] addresses Ha-tagged D/D domain (Aa1-45) of PKA-RIIα (human) (UniProt P13861). As to the kind of experiment: co-IP; two tagged proteins (Flag, Ha, His or Myc) co-expressed in HEK293T cells; lysates immunoprecipitated with an anti-tag antibody, partner detected by immunoblot with the other anti-tag antibody; in Figure 4E cells untreated, treated 10 min with forskolin or with forskolin + PKImyr.

Protein sequences, listed by entry. Tags and fused reporters are not part of them. Lines headed by an entry give the natural chain unless they say otherwise; changes in a name come on top. Chains listed by the source or under a name are the forms on record and can include a tag or linker. Residues count along the entry.
UniProt P13861: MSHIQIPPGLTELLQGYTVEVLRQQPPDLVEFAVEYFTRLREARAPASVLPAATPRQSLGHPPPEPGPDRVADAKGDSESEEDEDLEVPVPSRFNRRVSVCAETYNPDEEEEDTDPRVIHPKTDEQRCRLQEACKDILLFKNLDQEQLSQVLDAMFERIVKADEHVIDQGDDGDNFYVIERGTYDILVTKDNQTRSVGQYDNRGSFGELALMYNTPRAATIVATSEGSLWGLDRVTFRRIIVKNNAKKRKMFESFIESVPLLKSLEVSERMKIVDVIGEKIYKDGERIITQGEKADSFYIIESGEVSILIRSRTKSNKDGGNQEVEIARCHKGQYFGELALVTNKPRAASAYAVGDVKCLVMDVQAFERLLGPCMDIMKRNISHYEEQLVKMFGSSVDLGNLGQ
Ha-tagged D/D domain (Aa1-45) of PKA-RIIα: residues 1-45 of P13861
Ha-tagged PKA-RIIα D/D domain deletion mutant (Δ1-45): residues 46-404 of P13861

The target in experiment [2] is Ha-tagged PKA-RIIα (type II regulatory subunit of PKA), full length (human) (UniProt P13861). The experiment is described as above.
For experiment [3], the target named is Ha-tagged PKA-RIIα D/D domain deletion mutant (Δ1-45) (human) (UniProt P13861). The experiment is described as above.
Experiment [4] addresses T1, Myc-tagged 14-3-3θ fragment 81-160 (human) (UniProt P27348).
T1 sequence: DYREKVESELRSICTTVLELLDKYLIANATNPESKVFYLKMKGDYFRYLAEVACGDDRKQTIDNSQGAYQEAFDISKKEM
The description is as above.

The target of experiment [5] is T2, Myc-tagged 14-3-3θ, full length (human) (UniProt P27348).
T2 sequence: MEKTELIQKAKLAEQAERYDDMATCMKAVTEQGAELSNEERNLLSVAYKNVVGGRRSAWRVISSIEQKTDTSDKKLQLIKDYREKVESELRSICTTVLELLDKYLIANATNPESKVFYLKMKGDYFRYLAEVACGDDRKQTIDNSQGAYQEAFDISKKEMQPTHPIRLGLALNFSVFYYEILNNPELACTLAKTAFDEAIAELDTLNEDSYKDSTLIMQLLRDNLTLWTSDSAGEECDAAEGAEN
The description is as above.

Experiment [6] deals with Flag-tagged retinoic acid induced 16 (RAI16), full length (UniProt Q86V87). As to the kind of experiment: co-IP; Flag-tagged RAI16 and Ha-tagged PKA-RIIα co-expressed in HEK293T cells, lysates immunoprecipitated, without or with peptide sHt31 or sYF (not told whether added to cells or lysate).
Experiment [7] has as its target T3, Flag-tagged RAI16 Aa352-370 deletion mutant (Δ352-370) (UniProt Q86V87).
T3 sequence: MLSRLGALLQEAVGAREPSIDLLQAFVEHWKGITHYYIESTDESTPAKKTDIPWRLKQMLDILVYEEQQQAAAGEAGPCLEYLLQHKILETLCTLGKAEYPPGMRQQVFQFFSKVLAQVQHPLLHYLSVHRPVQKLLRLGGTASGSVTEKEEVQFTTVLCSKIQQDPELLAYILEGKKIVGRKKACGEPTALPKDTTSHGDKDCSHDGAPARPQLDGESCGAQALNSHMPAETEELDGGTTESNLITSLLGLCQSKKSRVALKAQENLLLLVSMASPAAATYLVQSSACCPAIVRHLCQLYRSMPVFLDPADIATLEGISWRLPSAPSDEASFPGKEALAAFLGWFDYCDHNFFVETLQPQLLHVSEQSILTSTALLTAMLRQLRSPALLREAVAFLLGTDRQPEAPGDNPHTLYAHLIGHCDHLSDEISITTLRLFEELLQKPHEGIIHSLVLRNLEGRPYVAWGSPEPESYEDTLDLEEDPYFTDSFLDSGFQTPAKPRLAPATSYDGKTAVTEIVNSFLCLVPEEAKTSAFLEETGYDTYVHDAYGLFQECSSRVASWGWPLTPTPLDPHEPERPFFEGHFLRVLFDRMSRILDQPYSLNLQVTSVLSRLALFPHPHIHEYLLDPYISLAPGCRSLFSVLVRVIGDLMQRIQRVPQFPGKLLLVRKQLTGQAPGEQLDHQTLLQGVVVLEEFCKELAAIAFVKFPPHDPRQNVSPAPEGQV
As to the kind of experiment: co-IP; two tagged proteins (Flag, Ha, His or Myc) co-expressed in HEK293T cells; lysates immunoprecipitated with an anti-tag antibody, partner detected by immunoblot with the other anti-tag antibody; in Figure 4E cells untreated, treated 10 min with forskolin or with forskolin + PKImyr.

Experiment [8] deals with T4, Flag-tagged RAI16 fragment 251-500 (UniProt Q86V87).
T4 sequence: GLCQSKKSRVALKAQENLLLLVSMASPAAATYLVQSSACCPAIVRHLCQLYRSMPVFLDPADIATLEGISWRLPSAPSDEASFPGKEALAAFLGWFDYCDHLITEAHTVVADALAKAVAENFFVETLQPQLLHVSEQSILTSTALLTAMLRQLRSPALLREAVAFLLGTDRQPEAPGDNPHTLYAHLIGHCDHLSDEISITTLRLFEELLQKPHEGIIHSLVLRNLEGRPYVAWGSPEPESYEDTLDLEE
The description is as above.

The target in experiment [9] is Flag-tagged retinoic acid induced 16 (RAI16), full length (UniProt Q86V87). The description is as above.
Experiment [10] has as its target His-tagged fusion protein of PKA-RIIα, purified (human) (UniProt P13861). In words: ELISA; 2 ug purified PKA-RIIα coated overnight at 4°C, blocked with 3% BSA in PBST; purified RAI16 alone or with sHt31 or sYF, 1 h at 37°C; detected with anti-RAI16 antibody, HRP anti-rabbit IgG and TMB; both purified.
The target of experiment [11] is endogenous RAI16 (human (endogenous in HEK293T)) (UniProt Q86V87). In words: co-IP; endogenous proteins of HEK293T lysates, immunoprecipitated with an antibody against one protein and blotted for the other.
Experiment [12] has as its target T5, endogenous 14-3-3θ (human (endogenous in HEK293T)) (UniProt P27348).
T5 sequence: T2 sequence
The description is as above.

The target in experiment [13] is endogenous PKA-RIIα (human (endogenous in HEK293T)) (UniProt P13861). The description is as above.

These are yes or no findings as the source states them, for the method shown. For some of these results: In cells and extracts the contact can be indirect. Some results given as binding are weak or reduced against the parent protein; the word gives no strength. For some of these results: Where a sequence is shown, tags or fusion partners need not be part of it.

In the case of “Flag-tagged retinoic acid induced 16 (RAI16), full length (from UniProt Q86V87 1-743)”, the binding result in experiment [1] was “binds”; in [2] it was “binds”; in experiment [3] it was “no binding”; in [4] it was “binds”; in [5] it was “binds”.

Turning to “Ha-tagged PKA-RIIα (type II regulatory subunit of PKA), full length (from UniProt P13861-1 1-404)”, the binding result is on record as “binds” in experiment [6], “no binding” in experiment [7], “binds” in [8] and “binds” in [9].

On to “His-tagged fusion protein of RAI16, purified (from UniProt Q86V87 1-743)”, for which the binding entry in [10] was “binds”.

“endogenous PKA-RIIα (from UniProt P13861-1 1-404)”: the binding entry in experiment [11] is on record as “binds”.

In the case of “endogenous RAI16 (from UniProt Q86V87 1-743)”, the binding entry in [12] and in experiment [13] was “binds” each time.

The values above are taken from paper PMC4558169.
